According to ChEMBL document CHEMBL4888484, “Replenishing the malaria drug discovery pipeline: Screening and hit evaluation of the MMV Hit Generation Library 1 (HGL1) against asexual blood stage Plasmodium falciparum ,using a nano luciferase reporter read-out” (2022):
Among all 150,000 compounds or so, about 540 (0.36%) showed an effect of 50% or more. The list shows a part of the results.

What follows are compounds tested on Plasmodium falciparum (assay: Primary screen in NF54 nanoGlo assay, in single point, at 2uM, 72h; a lower Z score goes with more inhibition). Settings: timepoint 72 hour.
Assay type: functional, Erythrocyte

| SMILES | % Inhibition | Z score |
| --- | --- | --- |
| Cc1cc(C)c(C(=O)NC[C@H]2CCNCC2(F)F)o1 | -6% | 1.16 |
| C[C@@]1(C(=O)NCc2ccccc2)CCC(=O)N1Cc1cccs1 | 4% | -0.48 |
| Cn1nc(C(F)(F)F)c(COC(=O)c2ccc(Cl)cc2)c1Oc1ccc(Cl)cc1 | 2% | -0.25 |
| O=C(Nc1nc(C2CC3CCC2C3)cs1)N1CCCC1c1ccncc1 (stereo unspecified) | -10% | 1.6 |
| CN1CCCCC[C@H]1C(=O)NCCc1ccc(Cl)cc1 | 13% | -1.18 |
| Cc1ccc(CN2CCC[C@H](CNC(=O)c3cnco3)C2)cc1C | -8% | 1.44 |
| COc1cc(C)nc(CN[C@H]2CCc3sc(Cl)cc32)c1 | 11% | -1.46 |
| CC(C)N1CCC(Cc2ccc(CCNC(=O)C3CCOCC3)cc2)CC1 | 6% | -0.66 |
| Cc1cnn(CCNC(=O)[C@H](C)N2CCCC2)c1 | -14% | 1.34 |
| COc1cccc(CN2CC[C@H]3C(=O)NCCCCCCN(Cc4ccncc4)[C@@H]3C2)n1 | -5% | 0.65 |
| CN(CCN1CCCCC1=O)C(=O)c1ccc[nH]1 | -5% | 0.76 |
| C[C@@H](CCNC(=O)C1=Cc2ccccc2OC1)N1CCCC1 | -10% | 1.6 |
| O=C(Nc1ccc(F)cc1)Nc1ccnn1C1CCCCC1 | 15% | -1.7 |
| O=C1CN(c2ccc(NC(=O)C[C@@H]3C=CCC3)cn2)CCN1 | -13% | 1.15 |
| CCCn1cc(C(=O)N[C@H]2C[C@H](c3nnc(Cn4cccn4)n3C)C2)c(C)n1 | -26% | 2.56 |
| Cc1ccc(C(C)(O)CNC2CCCC(C(F)(F)F)C2)o1 (stereo unspecified) | -15% | 2 |
| CC1CC(NC(=O)NCCCC2CCCCO2)CC(C)O1 (stereo unspecified) | 28% | -3.8 |
| c1ccc(-c2csc(CN3C[C@H]4CC[C@@H](C3)N(CC3CC3)C4)n2)cc1 | -25% | 2.64 |
| O=C(N[C@H]1COC[C@H]1NC(=O)c1ccncc1F)c1ccncc1F | 0% | 0.02 |
| Cc1cc(C)cc(NC[C@H](O)COC(C)C)c1 | -10% | 1.29 |
| C[C@]1(O)CCN(C(=O)c2cc(Cl)ccc2F)C[C@@H]1O | -2% | 0.34 |
| CC(NC(=O)C1CCC(=O)N1)c1csc2ccccc12 (stereo unspecified) | -2% | 0.32 |

| SMILES | % Inhibition | Z score |
| --- | --- | --- |
| CN(C)c1cccc(CNCc2c[nH]nc2-c2cccnc2)c1 | -4% | 0.81 |
| COc1ccc(CCNC(=O)c2c(-c3cccnc3)noc2C)cc1OC | 10% | -1.79 |
| CCCN(CCC)C(=O)c1csc(CN(Cc2ccc(F)cc2)Cc2ccc(Cl)cc2)n1 | -6% | 0.62 |
| CC(C)n1ccc(C(=O)N2CCn3c2nc2ccccc23)n1 | 7% | -0.76 |
| Cc1nc2ccc(CNC(=O)[C@H](C)c3ccc(O)cc3)cc2[nH]1 | 6% | -1.08 |
| Cc1ccc(NC(=O)N2CCOCCC2C)cc1NC(=O)N1CCOCCC1C (stereo unspecified) | -5% | 0.55 |
| COc1cc(C(=O)N[C@H]2CN(C)C[C@@H]2OC)ccn1 | -5% | 0.95 |
| CCN1CCC[C@@H]1CN1Cc2ccc(C(=O)NCc3nccs3)cc2C1=O | -15% | 2.05 |
| CC(C)N1CCc2cc(-c3nccn3CCN3CCOC3=O)ccc21 | 21% | -2.77 |
| CC(C)C(=O)N1CC(C)(C)c2cc(S(=O)(=O)N(Cc3ccco3)C3CCCCC3)ccc21 | 15% | -1.76 |
| O=C(CC1(CN2Cc3ccccc3C2=O)CCCCC1)Nc1cccnc1 | -9% | 1.21 |
| COCCCNC(=O)C1Cc2cc(C(F)(F)F)ccc2N2CCN(CC(=O)N3CCOCC3)CC12 (stereo unspecified) | -2% | 0.31 |
| Cc1ccccc1[C@@H](O)CNC(=O)NCCC(=O)NC1CCCC1 | 3% | -0.49 |
| C[C@H]1Cc2ccccc2N1C(=O)CN1CCN(C(=O)c2cccc(F)c2)CC1 | 2% | -0.25 |
| N#CC1(NC(=O)CCOc2ccccc2)CCC1 | 8% | -0.9 |
| CCc1nn(C)c(Cl)c1CN1CCC[C@H](CNC(=O)c2cc(C)on2)C1 | -6% | 1.16 |
| O=C(CN1CCC(c2ncco2)CC1)Nc1ccc(F)c(Cl)c1 | -6% | 1.1 |
| Cc1ccccc1OCC(=O)N1CCC[C@H]1c1nnc2ccccn12 | -2% | 0.41 |
| C=CCc1ccccc1OCCN(C)Cc1nccn1C | -11% | 1.03 |
| Cc1n[nH]c(C)c1S(=O)(=O)Nc1cc(F)ccc1OCC1CC1 | 6% | -0.89 |
| O=C(NC1CC1)C1Cc2cc(C(F)(F)F)ccc2N2CCN(c3ccccc3F)CC12 (stereo unspecified) | -19% | 2.05 |
